Measurements as given in PubChem BioAssay AID1963576 (National Center for Advancing Translational Sciences (NCATS), 2024).
Among all 46,000 compounds or so, about 60 (0.1%) were called active. About 3% were inconclusive and are not listed. Calls follow the shape of the dose curve; as a rule, active = well fitted inhibition curve with a large enough effect; inconclusive = small, poorly fitted or top-dose-only effect; inactive = no such curve, though single readings can be large or run the other way. This is one part of the list.

Experiment: Primary qHTS assay for Inhibitors of ovarian cancer metastasis using an organotypic tumor microenvironment (TME) model. Also: nearly all actives have a fitted effect of over 65% in size.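 As to activity change, negative = inhibition: plate controls were DMSO wells for no effect and tomatine positive control wells for full effect.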
Details: SKOV3ip1-GFP adhesion/invasion on 3D omental model, fluorescence; series mostly up to 45.8 µM; activity change, negative = inhibition: at the top concentration
Procedure, shortened: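 qHTS, 4-pt dose (0.36-46 umol/L); SKOV3ip1-GFP, 1,200 cells/well, no FBS; primary omental fibroblast/mesothelial co-culture 48 h pre-grown; 2 h RT + 16 h 37 C; PBS wash, 4% PFA; GFP count 488/509 nm.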

Activity change, negative = inhibition, inactive:
Cc1cccc2sc(N3CCN(C(=O)CS(=O)(=O)c4ccc(F)cc4)CC3)nc12 -9.97%
Cc1ccc(Cl)cc1-n1ncc2c(NC3CCCCC3)ncnc21 2.91%
N#Cc1cccc(Nc2ncnc3c2cnn3-c2cccc(Cl)c2)c1 -7.56%
COc1cc(OC)c2c(C)c(CC(=O)NCCc3ccccc3OC)c(=O)oc2c1 -6.78%
Cc1cc(C(=O)N2CCN(c3ccc(F)cc3)CC2)c2c(C)nn(-c3cccc(Cl)c3C)c2n1 -9.29%
CCc1ccc(S(=O)(=O)c2cnc3ccc(OC)cc3c2N2CCCC(C)C2)cc1 (stereo unspecified) 4.78%
CCCc1nc2nc(C)c(NS(=O)(=O)c3ccc(F)cc3)c(=O)n2[nH]1 -0.475%
Cc1ccc(C)c(NC(=O)Cn2nnc(C(=O)NCCc3ccccc3)c2N)c1 -4.19%
CCOC(=O)c1ccc(NC(=O)C(CC)Sc2nnc3c4ccccc4n(C)c3n2)cc1 (stereo unspecified) -4.19%
COC(=O)c1cccc(Nc2c(-c3ccc(OC)cc3)nc3nc[nH]n23)c1 -8.18%
CC(=O)ON=C1C(c2c(O)[nH]c3cc(Br)ccc23)=Nc2ccccc21 -20.1%
CCC1=Nc2cc(C(=O)NCc3ccccc3Cl)ccc2Sc2ccc(C)cc21 5.48%
Cc1cccc(NC(=O)CSc2nc(=O)n(Cc3ccco3)c3c2CCC3)c1C 4.14%
CCOc1ccc(NC(=O)[C@H]2O[C@@H]3OC(C)(C)O[C@@H]3[C@H]3OC(C)(C)O[C@H]32)cc1 2.86%
COc1cccc(CNC(=O)CSc2n[nH]c(-c3ccccc3Cl)n2)c1OC -5.9%
CCc1ccc(Oc2c(C(F)(F)F)oc3c(CN4CCN(CC)CC4)c(O)ccc3c2=O)cc1 -9.85%
O=C(Nc1nc2ccc(S(=O)(=O)N3CCCC3)cc2s1)c1ccc(F)cc1 -12%
CCOc1ccc(CN(C(=O)c2nc(SC)ncc2Cl)C2CCS(=O)(=O)C2)cc1 (stereo unspecified) -7.63%
CCc1nn(CC(=O)NCc2ccccc2Cl)c(=O)c2cc3ccccc3n12 4.21%
O=c1c(N2CCN(c3cccc(Cl)c3)CC2)csc2ccccc12 3.02%
Cc1ccc2cc3cc(C(=O)N4CCN(c5ccccc5)CC4)oc3nc2c1 -3.31%
Cc1cc(C)cc(NC(=O)C(=O)NCCCN2CCOCC2)c1 -15.1%

outcome, inactive:
COc1ccc(CNC(=O)Cn2c(=O)nc(-c3ccccc3F)c3cc(Cl)ccc32)cc1OC
Cc1cc(C)c(NC(=O)Cn2c(=O)n(Cc3ccc4c(c3)OCO4)c(=O)c3ccccc32)c(C)c1
CCOc1ccccc1CNC(=O)c1cn(-c2ccc(OC)cc2)c(=O)c2ccccc12
COCCCNC(=O)c1ccc(Cn2c(=O)c3ccccc3n(CC(=O)Nc3ccc(C)cc3C)c2=O)cc1
